# This is one part of the list. The energies were worked out here from pooled read counts, against the library average; single values are noisy.
# Molecular target: T1, Pho4 (S. cerevisiae) (UniProt P07270)
# T1 sequence: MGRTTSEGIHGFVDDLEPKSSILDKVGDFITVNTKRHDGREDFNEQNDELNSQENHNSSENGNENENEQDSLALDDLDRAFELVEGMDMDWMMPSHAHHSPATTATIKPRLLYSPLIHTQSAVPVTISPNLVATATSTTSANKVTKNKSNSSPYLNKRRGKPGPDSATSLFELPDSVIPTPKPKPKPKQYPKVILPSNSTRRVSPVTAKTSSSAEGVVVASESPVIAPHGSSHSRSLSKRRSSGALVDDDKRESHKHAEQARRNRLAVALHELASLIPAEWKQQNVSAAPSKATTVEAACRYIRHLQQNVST
# Assay: relative binding free energy (BET-seq); higher = weaker binding
# Settings: reference: library average
row,Sequence,relative binding free energy
1,GGGCACACGTGTGGCA,0.16 kcal/mol
2,TGGGGCACGTGGCTTC,-0.16 kcal/mol
3,TGATGCACGTGTGGGA,0.01 kcal/mol
4,GTAGGCACGTGAGCTG,0.22 kcal/mol
5,TAGCACACGTGTGGTA,0.07 kcal/mol
6,CAATGCACGTGGATGG,-0.09 kcal/mol
7,TGAACCACGTGGGGGA,-0.24 kcal/mol
8,AAGGACACGTGGATTT,0.13 kcal/mol
9,GCCGGCACGTGAGGGT,0.25 kcal/mol
10,GGTTGCACGTGTGAGG,0.13 kcal/mol
11,CTTTACACGTGAAGTG,0.23 kcal/mol
12,TGCTGCACGTGTTGAT,0.03 kcal/mol
13,TAGGACACGTGAGCTG,0.21 kcal/mol
14,GTCGGCACGTGTATCG,0.08 kcal/mol
15,TGGGACACGTGTAGTT,0.15 kcal/mol
16,TCTATCACGTGTAGGT,0.09 kcal/mol
17,TTGGACACGTGTTGAC,0.14 kcal/mol
18,GATGACACGTGCGGGG,0.07 kcal/mol
19,GGTGTCACGTGGGCCT,-0.11 kcal/mol
20,TTGGACACGTGGTATC,-0.02 kcal/mol
21,AATGGCACGTGTTTGC,-0.08 kcal/mol
22,TTTTACACGTGGGCGA,0.14 kcal/mol
23,TGGATCACGTGCGTGT,-0.04 kcal/mol

row,Sequence,relative binding free energy
1,TTGGACACGTGGAAGA,0.06 kcal/mol
2,TGGGGCACGTGGTTGC,-0.14 kcal/mol
3,GTTTGCACGTGACAGG,0.29 kcal/mol
4,TTATGCACGTGGATTA,0.02 kcal/mol
5,TTCAGCACGTGTGAAT,-0.03 kcal/mol
6,TTAGTCACGTGAATGC,0.32 kcal/mol
7,TCAATCACGTGGTTGT,0.07 kcal/mol
8,GGGGGCACGTGTATAC,0.06 kcal/mol
9,AGTGGCACGTGGTTTC,-0.1 kcal/mol
10,TAGCTCACGTGGGTAT,0.15 kcal/mol
11,CAGTACACGTGGTGGA,0.03 kcal/mol
12,GATGGCACGTGTGTTG,-0.01 kcal/mol
13,TCTGTCACGTGTTTTA,-0.05 kcal/mol
14,TTGGTCACGTGGTAGG,0.13 kcal/mol
15,GTACACACGTGGCGGG,-0.04 kcal/mol
16,TTTAGCACGTGGTAGT,-0.16 kcal/mol
17,GCATGCACGTGTGGTA,-0.08 kcal/mol
18,TGTAGCACGTGGCTCG,-0.15 kcal/mol
19,TAAGGCACGTGGCTTA,-0.23 kcal/mol
20,TTATGCACGTGTGCCG,-0.15 kcal/mol
21,ACTGTCACGTGGTTTA,0.2 kcal/mol
22,GGTGCCACGTGGTTGG,-0.14 kcal/mol
23,AGGCTCACGTGTTATT,0.25 kcal/mol

row,Sequence,relative binding free energy
1,GTTTGCACGTGTTAAT,0.05 kcal/mol
2,AGGGGCACGTGTGAAC,0.02 kcal/mol
3,GGGATCACGTGTCGGT,0.25 kcal/mol
4,GAAGGCACGTGTGTAG,0.04 kcal/mol
5,GTGGACACGTGTTGAG,0.09 kcal/mol
6,GGATACACGTGGCGTA,0 kcal/mol
7,ATGATCACGTGGATTA,0.23 kcal/mol
8,AGCTTCACGTGATAGG,0.29 kcal/mol
9,GTTTCCACGTGGGTGA,-0.17 kcal/mol
10,CGGCTCACGTGGGGTG,0.04 kcal/mol
11,TACTGCACGTGGCGGG,-0.2 kcal/mol
12,GGATGCACGTGGTTTA,-0.04 kcal/mol
13,GTGTGCACGTGCTAGA,-0.02 kcal/mol
14,TTCAGCACGTGAAGTA,0.32 kcal/mol
15,TATGCCACGTGGAGGA,-0.11 kcal/mol
16,CGATGCACGTGGCGGG,-0.2 kcal/mol
17,GTGTGCACGTGGCCTT,-0.09 kcal/mol
18,TGTTCCACGTGATGTA,0.03 kcal/mol
19,CGTTGCACGTGTGGTA,-0.06 kcal/mol
20,AGGTCCACGTGTGTGC,-0.01 kcal/mol
21,GGGCTCACGTGGCGTT,0.11 kcal/mol
22,GTAATCACGTGTCTTT,0.2 kcal/mol
23,TTTGGCACGTGAGGGG,0.19 kcal/mol

row,Sequence,relative binding free energy
1,TTGAGCACGTGTGTAG,-0.12 kcal/mol
2,ATAGACACGTGGGGTT,-0.1 kcal/mol
3,TCAATCACGTGGTTTC,0.27 kcal/mol
4,ATTTTCACGTGGGCCG,0.2 kcal/mol
5,CGTGGCACGTGGATTA,-0.07 kcal/mol
6,AGTTACACGTGTCGAT,0.15 kcal/mol
7,GGCTTCACGTGTTTGC,0.34 kcal/mol
8,GCGGGCACGTGGCGGA,-0.14 kcal/mol
9,TTAATCACGTGTGTCT,0.11 kcal/mol
10,TGAAACACGTGGGAGT,-0.1 kcal/mol
11,GGTATCACGTGGTTTG,0.12 kcal/mol
12,TGAGTCACGTGATTGA,0.23 kcal/mol
13,GTGGTCACGTGTTTCT,0.08 kcal/mol
14,GTTATCACGTGTGTTC,0.17 kcal/mol
15,AGGGTCACGTGTATGG,0.01 kcal/mol
16,TGTGGCACGTGTCATT,-0.1 kcal/mol
17,GAGGGCACGTGGGACT,-0.26 kcal/mol
18,GTTAACACGTGATATG,0.07 kcal/mol
19,AGTGTCACGTGCCTGG,-0.03 kcal/mol
20,GTTAGCACGTGGCGTA,-0.05 kcal/mol
21,AGTATCACGTGTGTCG,0.11 kcal/mol
22,GGGGTCACGTGCGGAA,0.29 kcal/mol
23,AACGGCACGTGTAGGG,-0.11 kcal/mol

row,Sequence,relative binding free energy
1,GTGATCACGTGAGCGG,0.32 kcal/mol
2,GCGTACACGTGTGTTT,0.09 kcal/mol
3,AGATTCACGTGTGGAT,0.37 kcal/mol
4,TAAAGCACGTGGGGAC,-0.16 kcal/mol
5,ATGGTCACGTGTATGA,0.07 kcal/mol
6,TGAATCACGTGCGGTG,0.18 kcal/mol
7,TGAAACACGTGTAGTT,0.07 kcal/mol
8,GTATTCACGTGTAGTG,0.24 kcal/mol
9,GGAGGCACGTGGCATA,-0.09 kcal/mol
10,GGTGTCACGTGTTAAC,0.13 kcal/mol
11,CATGTCACGTGTTGAG,-0.01 kcal/mol
12,TGAATCACGTGGACTG,0.23 kcal/mol
13,TGGTACACGTGGAATA,0.06 kcal/mol
14,TTTTGCACGTGTGCAG,-0.08 kcal/mol
15,GTCGGCACGTGGCGAG,-0.09 kcal/mol
16,AAGTGCACGTGTTGAG,-0.01 kcal/mol
17,AGGCTCACGTGGTGGG,0.18 kcal/mol
18,GGGGGCACGTGTGGGC,-0.03 kcal/mol
19,TCGATCACGTGGCGGT,0.03 kcal/mol
20,GGGATCACGTGGTGGA,0.21 kcal/mol
21,TGGGGCACGTGCTTGT,-0.16 kcal/mol
22,ACCGGCACGTGGTGTG,-0.29 kcal/mol
23,GTCGGCACGTGACGTG,0.12 kcal/mol

# From the BET-seq Pho4 binding data (Le et al. 2018)
